The values that follow come from PMC7819943, “Rice protein-binding microarrays: a tool to detect cis-acting elements near promoter regions in rice”.

This is one part of the list.

The assay deals with T1, OsWOX13 (Oryza sativa, UniProt Q5QMM3 1-267).
T1 sequence: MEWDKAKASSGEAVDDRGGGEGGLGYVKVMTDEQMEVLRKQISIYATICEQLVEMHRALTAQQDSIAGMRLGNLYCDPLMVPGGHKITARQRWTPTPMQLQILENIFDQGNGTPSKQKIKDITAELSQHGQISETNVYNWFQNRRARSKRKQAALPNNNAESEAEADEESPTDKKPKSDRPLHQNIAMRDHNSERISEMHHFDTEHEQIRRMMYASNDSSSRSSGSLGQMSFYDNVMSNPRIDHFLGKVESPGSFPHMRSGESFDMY
The assay is described as follows: protein-binding microarray (RPBM); PBS, 2% BSA, 51.3 ng/ul salmon testes DNA, 50 uM zinc acetate, 200 nM TF, 25 C, 1 h; high values mean tight binding. The conditions noted are these: protein: recombinant; tags: N-terminal polyhistidine and DsRed monomer fusion (pET32a); label: CyDye5-dUTP incorporated in the synthesized complementary strand; 3' TTTTT single-stranded linker to array surface; dsDNA, one strand shown. Summed up:
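The binding signal for each feature is its fluorescence intensity in arbitrary units. An Axon 4000B scanner was used to read a custom Agilent array that had been made double-stranded with Cy5-dUTP primer extension, blocked with 2% BSA, incubated at 25 °C for 1 h with 200 nM protein in PBS, 2% BSA, salmon testes DNA and 50 µM zinc acetate, and washed. The protein was an N-terminal polyhistidine–DsRed transcription factor fusion from E. coli BL21-CodonPlus, purified on Ni–NTA.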
For the sequence “GCCTTAATTAATAATGTTTAACCACTATAGATTTATTTTCCGGAGTCACCTAGTGCAG”, the binding signal was 30800 fluorescence intensity (a.u.).
For “GGCCGGTTGATTGTGTGGTTGGTGAGGGCGCGAGCTCTGCCGGAGTCACCTAGTGCAG”, the binding signal is 10600 fluorescence intensity (a.u.).
As to “CAAATTTTGAAAAGATTTATTTTGACAATAATCTGAGTATCGGAGTCACCTAGTGCAG”, the binding signal was 3590 fluorescence intensity (a.u.).
Take “TGTGATTATGATACTGTGCACGATGAGGCACCCCTGGTGGCGGAGTCACCTAGTGCAG”: the binding signal is 41700 fluorescence intensity (a.u.).
Turning to “GAATGAGAAAATTTGAGTCTAATTTAGCAGGCAGAACTAACGGAGTCACCTAGTGCAG”, the binding signal was 3490 fluorescence intensity (a.u.).
As to “AGATAATTAAGTATTTTACGTAAAATAAGATAGTATTAATCGGAGTCACCTAGTGCAG”, the binding signal is 5240 fluorescence intensity (a.u.).
Regarding “ATAATGAATAGATTACCACATGCTATGGCTATGCATGTACCGGAGTCACCTAGTGCAG”, the binding signal is 16200 fluorescence intensity (a.u.).
Next, “ATTATTTGTGATTAAGAGGTAGATCATAATACGGGTGGTTCGGAGTCACCTAGTGCAG”: 6260 fluorescence intensity (a.u.).
On to “TAGGCTTAATTACTATATACTTGCATGTTGAGTTTTGTGTCGGAGTCACCTAGTGCAG”, for which the binding signal was 15700 fluorescence intensity (a.u.).
For the sequence “CACAGATTGCGTGTAAATTGTGAGACGAATCTTTTAAGCCCGGAGTCACCTAGTGCAG”, the binding signal is 29700 fluorescence intensity (a.u.).
In the case of “ATGATGAAAATTCATGACAACTCAAAACCAGTATTCGTTGCGGAGTCACCTAGTGCAG”, the binding signal was 3550 fluorescence intensity (a.u.).
With “ACCGTACGATCAAACCAATCAACTCACCGCGGTGAGAAGGCGGAGTCACCTAGTGCAG”, the binding signal is 4650 fluorescence intensity (a.u.).
Regarding “CTACAAATTAACTTTGAGTACTTAATGATGTAATTTGATCCGGAGTCACCTAGTGCAG”, the binding signal is 34200 fluorescence intensity (a.u.).
Take “ATTGATTGGTGTCTTGCCGAGAGAGGCTTCAATTCTTAGACGGAGTCACCTAGTGCAG”: the binding signal is 19400 fluorescence intensity (a.u.).
With “GTTGACGGATGAAAATCAAACTCGTTATCAAATTAAGGGACGGAGTCACCTAGTGCAG”, the binding signal is 4090 fluorescence intensity (a.u.).
Regarding “GATATAATTCAAATTCAAATTTGAATCGGATATATAAACTCGGAGTCACCTAGTGCAG”, the binding signal is 3380 fluorescence intensity (a.u.).
Next, “TAAAATTGCATATGAAATTTTAGTGTATTTACAATGTAAGCGGAGTCACCTAGTGCAG”: 9920 fluorescence intensity (a.u.); “TTCGCACGGTGATGTACGAGATTGGATTTTACGACGTTTTCGGAGTCACCTAGTGCAG”: 3560 fluorescence intensity (a.u.); “CCGCTGATTACAGTCGGTCTTTCTGGTTTTAGCCCATGGACGGAGTCACCTAGTGCAG”: 23500 fluorescence intensity (a.u.).
“AATTACAAAATCAATTTTAAATTTAAATTTTAGCTTATACCGGAGTCACCTAGTGCAG”: the binding signal was 12100 fluorescence intensity (a.u.).
Turning to “CATAGACATATTTTAGTTAATGGTCGTATAGTCGATATACCGGAGTCACCTAGTGCAG”, the binding signal is 4510 fluorescence intensity (a.u.).
“GCGATAAATGCGAGTTTAATTTCTAGTGGTGTGTAATTAACGGAGTCACCTAGTGCAG”: the binding signal was 4450 fluorescence intensity (a.u.).
“TATATATATATATATATATATATATATATGTGTGTGTGTGCGGAGTCACCTAGTGCAG”: the binding signal was 20300 fluorescence intensity (a.u.).
“GCATTCACCTTGCTTGACTGTAATTGAGTCATTGCTGTACCGGAGTCACCTAGTGCAG”: the binding signal was 3780 fluorescence intensity (a.u.).
Next, “CAGGCAAATTTAAGGTTAATTCAATTAAGTGATACACCAACGGAGTCACCTAGTGCAG”: 16700 fluorescence intensity (a.u.); “CGATGATTACGTCCTGTCCTTCAGGACAGATCGTTCGAAACGGAGTCACCTAGTGCAG”: 16400 fluorescence intensity (a.u.).
In the case of “GTGAATTGGCTGCAAATCTAACCACAAAATACTTGTCAATCGGAGTCACCTAGTGCAG”, the binding signal is 4200 fluorescence intensity (a.u.).
As to “AGTACTTGATAGAGATCTTAGATTGAAAATGCTCCCTGAACGGAGTCACCTAGTGCAG”, the binding signal was 31800 fluorescence intensity (a.u.).
As to “TAGAATTGAATATATCATACTCCAGTTTATACTAGAACGTCGGAGTCACCTAGTGCAG”, the binding signal was 5630 fluorescence intensity (a.u.).
The same measure for “ATTATTGAAATTTAGCATTTATGAATGATGTAGGGTGATACGGAGTCACCTAGTGCAG”: 10800 fluorescence intensity (a.u.); for “AAACTAAACTGGGCCTAAACGTGAGATATCTACGAGCCGCCGGAGTCACCTAGTGCAG”: 3780 fluorescence intensity (a.u.); for “CTATTTCTTGTTGATTACAGGATCAAATCAACTGGTACGCCGGAGTCACCTAGTGCAG”: 4570 fluorescence intensity (a.u.).
The same measure for “GCTAACTGCTAAGAATTTGCATGAGCTAGCAATTCGCATGCGGAGTCACCTAGTGCAG”: 4020 fluorescence intensity (a.u.); for “ACGTAATTATAGCTTATTTTGTTATGAGTTATTTTATCACCGGAGTCACCTAGTGCAG”: 24500 fluorescence intensity (a.u.).
On to “TTTTATTAACTGTAAACGTCACATGTTCTGTCATACGCGTCGGAGTCACCTAGTGCAG”, for which the binding signal is 5270 fluorescence intensity (a.u.).
In the case of “TAATCGTATTAATTGATCAACAGGCTAGGCCAGCCAAACACGGAGTCACCTAGTGCAG”, the binding signal is 13200 fluorescence intensity (a.u.).
For the sequence “TATTTTGGACCCATGATAGATTGATTTAGAACATGCGGAGCGGAGTCACCTAGTGCAG”, the binding signal was 11400 fluorescence intensity (a.u.).
Regarding “CACAAACACACACATATTCTCAATCTAACATAATAACACTCGGAGTCACCTAGTGCAG”, the binding signal is 3170 fluorescence intensity (a.u.).
As to “ATCACAAATCACATATCACACATCATAGATCGTTCACACGCGGAGTCACCTAGTGCAG”, the binding signal is 5090 fluorescence intensity (a.u.).
Take “GATCTAATTTGTTGTGTATTCTCAGAGTTTACTGTACTCTCGGAGTCACCTAGTGCAG”: the binding signal is 22800 fluorescence intensity (a.u.).
Take “AATAATCACCATGTTAAAATTATTAGATGTGTCTTGTTTACGGAGTCACCTAGTGCAG”: the binding signal is 4390 fluorescence intensity (a.u.).
For the sequence “TCAAATACTGCTGATTATACATACCCACATGTGTTGAATGCGGAGTCACCTAGTGCAG”, the binding signal is 3580 fluorescence intensity (a.u.).
